Data published in patent publication US11738063B2, “Pharmaceutical composition for preventing or treating neurodegenerative diseases which includes flower extract of Daphne genkwa or fractions thereof as active ingredient” (KOREA RESEARCH INSTITUTE OF BIOSCIENCE AND BIOTECHNOLOGY, priority 2016, dated 2023).

System: CHL (Chinese Hamster Lung)/IU cells
Test: Chromosome aberration assay
Details: 20 μg/mL, S9+, 6-18 hr, positive control

Compound: c1ccc2c(c1)cc1ccc3cccc4ccc2c1c34 [B[a]P, Benzo[a]pyrene]
- RPD: 41.3% and 57.4%

“And” between values parts separate entries of the source, which are not always exact repeats. Equal values may be shown once.
